Test results taken from PubChem BioAssay AID1458 (National Center for Advancing Translational Sciences (NCATS), 2008).
In all, about 210,000 compounds went through this assay and about 5,900 (2.8%) were called active. The shares of active, inactive and inconclusive entries below differ from those in the screen. The call rests on the fitted dose curve; in most records, active means well fitted activation curve with a large enough effect; inconclusive means small, poorly fitted or top-dose-only effect; inactive means no such curve, though single readings can be large or run the other way. A potency beside an inconclusive call is a rough fit, not a confirmed value.

Test: qHTS Assay for Enhancers of SMN2 Splice Variant Expression; further: nearly all actives have a fitted effect of over 55% in size; on activity change, positive = activation: % of control where 0% means no effect
Settings: HEK293 SMN2-luciferase splicing reporter, luminescence, 30-36 h; activity change, positive = activation: at 46.1 µM (top of the series)
Procedure, shortened: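 HEK293 cells carry an SMN2 minigene-luciferase reporter in which exon 7 inclusion puts luciferase in frame. Cells were seeded at 2000 cells/well, attached for 10-12 hours, then exposed to compounds for 30-36 hours at 37C before ONE-Glo luminescence.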
Potency means the concentration at half of the fitted maximal effect; tags describe the fitted curve by direction and shape.

SMILES | Potency | activity change, positive = activation
COc1ccccc1NC1=C(NC(C)=O)C(=O)c2ccccc2C1=O | inactive | 
Cn1nnc(NC(=S)NC(=O)c2cccs2)n1 | inconclusive: 0.562 µM [activator, full curve, poor fit] | 
CCCCNC(=S)N/N=C/c1ccc(C)s1 | inconclusive: 10 µM [activator, partial curve] | 
O=C(NCc1n[nH]c(=S)n1Cc1ccccc1)c1ccc(Cl)cc1Cl | inconclusive: 12.6 µM [activator, single point] | 
N/C(=N\OC(=O)C(c1ccccc1)c1ccccc1)c1ccccn1 | inactive | 
CC1(C)C(=O)C(c2ccccc2)=C2CN3C(=O)N(CCc4ccccc4)C(=O)C3(Cc3ccc(F)cc3)C=C21 (stereo unspecified) | inactive | 
O=C(NCCCN1CCN(C2CCCCC2)CC1)Nc1ccccc1C(F)(F)F | inconclusive: 0.0045 µM [activator, full curve, poor fit] | 
O=C(COc1ccc(Br)cc1Cl)c1ccc[nH]1 | inconclusive: 20 µM [activator, partial curve, poor fit] | 
Clc1ccc(CSC2=NCCN2)cc1Cl |  | inactive: -22.4% [at 9.22 µM]
Cc1nc(CS(=O)(=O)c2ccccc2)cc(Sc2ccccc2Cl)n1 | inconclusive: 35.5 µM [activator, single point] | 
CCOC(=O)c1nnc2c(-c3ccc(OC)cc3)c(C)nn2c1N | inactive | 
COc1ncc2nc(C)c(=O)n(Cc3cccs3)c2n1 | inactive | 
C=CCNC(=S)NNC(=O)COc1ccc2cc(Br)ccc2c1 | active: 11.2 µM | 
COc1ccc(CCNC(=O)CCc2ccc(S(=O)(=O)NCC(C)C)cc2)cc1 | inactive | 
O=C(C(Cc1ccccc1)N1C(=O)c2ccccc2C1=O)N1CCc2ccccc21 (stereo unspecified) | inactive | 
Brc1ccc(-c2csc(NC3=NCCCCC3)n2)cc1 | inconclusive: 28.2 µM [activator, single point] | 
COC(=O)c1ccc(C(NC(=O)OCc2ccccc2)/C(F)=C/[C@@H](C)C(=O)NCc2ccc(-c3ccccc3)cc2)cc1 (stereo partly specified) | inactive | 
O=c1c2ccccc2nc(COc2ccccc2)n1/N=C/c1cc([N+](=O)[O-])ccc1O | inactive | 
Cc1ccc(C(=O)Nc2ccccc2Oc2ccccc2)cc1[N+](=O)[O-] | inconclusive: 0.251 µM [activator, partial curve] | 
CC/C(=N/O)c1cnnc(SC)n1 | inconclusive: 3.98 µM [activator, full curve, poor fit] | 
O=C(CSc1nncn1-c1ccccc1)NC1CCCCC1 | inactive | 
O=C(Nc1ccccc1)Nc1nnc(-c2cccs2)s1 | inconclusive: 3.55 µM [activator, partial curve] | 
Oc1ccc(N=Nc2nc(-c3ccccc3)c(-c3ccccc3)[nH]2)cc1 | inconclusive: 0.02 µM [activator, full curve, poor fit] | 
COc1cccc(C(=O)N2CCN(C(=O)c3cccc(F)c3)CC2)c1 | inactive | 
CC(C)(C)C1CCC(=NNC(=O)C(=O)NCc2ccco2)CC1 (stereo unspecified) | inactive | 
Cc1ccc(NS(=O)(=O)c2cccc(C(=O)Nc3cc(C)on3)c2)cc1 | inactive | 

SMILES | Potency | activity change, positive = activation
CCc1nc(SCC(=O)N2c3ccccc3CC2C)c2c(C)c(C)sc2n1 (stereo unspecified) | inconclusive: 3.55 µM [activator, single point] | 
O=C(Nc1cccc2ccccc12)N1CCc2ccccc2C1 |  | inconclusive: 31.3% [activator]
O=C(/C=C/c1ccc2c(c1)OCO2)Nc1nc2ccccc2s1 | active: 3.55 µM | 
COc1cc(/C=C/c2nc(C#N)c(NC3CCCCC3)o2)cc(OC)c1OC | inconclusive: 22.4 µM [activator, single point] | 
Cc1nnc(S(=O)(=O)c2ccc(N=Nc3c(N)nc(N)nc3N)cc2)s1 |  | inactive: 16.2% [at 9.22 µM]
CC(C)n1cnc2cc(NCc3ccco3)ccc21 | inconclusive: 11.2 µM [activator, partial curve] | 
CC(C)=CC(=O)Nc1nc2ccc([N+](=O)[O-])cc2s1 | inconclusive: 10 µM [activator, partial curve] | 
COc1ccc(OC)c(C2/C(=C(\O)c3ccc(OC)c(Cl)c3)C(=O)C(=O)N2CCN(C)C)c1 (stereo unspecified) | inconclusive: 0.708 µM [activator, full curve] | 
O=C(Nc1nc2ccccc2s1)C1CCCO1 (stereo unspecified) | active: 12.6 µM | 
Cc1cc(=O)oc2cc(OCc3ccc(C(=O)OCC(=O)Nc4ccccc4OC(F)F)cc3)ccc12 | inactive | 
CCOc1ccc(OCc2ccc(C(=O)NCC3CCCO3)o2)cc1 (stereo unspecified) | inconclusive: 11.2 µM [activator, single point] | 
S=C(NCC1CCCO1)Nc1ccc(Cl)cc1Cl (stereo unspecified) | inconclusive: 11.2 µM [activator, partial curve, poor fit] | 
O=C(NC(=S)Nc1nc2ccccc2s1)c1cccs1 | active: 2 µM | 
Cc1ccc(SCC2=NN(c3nc(C)cc(C)n3)C(=O)C2)cc1 | inconclusive: 3.98 µM [activator, full curve] | 
COc1cccc(C(=O)Nc2ccc(NC(=O)c3ccco3)nc2)c1 | inconclusive: 11.2 µM [activator, partial curve, poor fit] | 
O=C(COC(=O)c1ccc(CSc2ccc(Cl)cc2)cc1)Nc1ccccc1 | inconclusive: 10 µM [activator, partial curve] | 
Cc1ccc(NC(=O)Nc2ccc(Cl)cc2)c(Br)c1 | inconclusive: 22.4 µM [activator, single point] | 
CCN=c1scc(-c2ccc(F)cc2)n1/N=C/c1ccccn1 | active: 12.6 µM | 
CCNc1nc(NCC)nc(N/N=C/c2ccc(O)c(O)c2)n1 | inconclusive: 20 µM [activator, partial curve, poor fit] | 
COc1ccc(OC)c(S(=O)(=O)N2CCC(C(=O)NCCc3ccccc3)CC2)c1 | inconclusive: 14.1 µM [activator, single point] | 
CCCN1CN(CCc2ccccc2)CNC1=S | inconclusive: 0.891 µM [activator, full curve, poor fit] | 
CCN(CCNC(=O)C1CCCN(S(=O)(=O)c2cnc[nH]2)C1)c1ccccc1 (stereo unspecified) | inconclusive: 35.5 µM [activator, single point] | 
COc1ccc(/C(N)=N/OC(=O)c2cccc([N+](=O)[O-])c2)cc1 | inconclusive: 35.5 µM [activator, single point] | 
CCN(CC(=O)Nc1ccc2c(c1)OCCO2)Cc1cc(=O)oc2cc(C)c(C)cc12 | inconclusive: 15.8 µM [activator, single point] | 
Cc1ccc2cccc(Oc3nnnn3-c3ccccc3)c2n1 | inconclusive: 31.6 µM [activator, partial curve, poor fit] | 
CC(C)(C)n1cnc2cc(NC(=O)c3cccs3)ccc21 | active: 12.6 µM | 

SMILES | Potency | activity change, positive = activation
CC(C)NC(=O)N1CC2(CCN(C(=O)c3ccncc3)CC2)C1 | inactive | 
Cc1ccc(N=C2NC(=O)/C(=C/C=C/c3ccco3)S2)cc1 | inconclusive: 11.2 µM [activator, partial curve, poor fit] | 
Cc1ccc2nc(NC(=O)Cc3cccs3)sc2c1 | inconclusive: 11.2 µM [activator, partial curve] | 
COc1ccc(/C=C2/CCOC2=O)cc1 | inactive | 
Fc1cccc2sc(Nc3nnc(-c4ccco4)o3)nc12 | active: 3.55 µM | 
O=C(Nc1ccc(Br)cc1)C1CCCN(S(=O)(=O)c2ccc(Br)s2)C1 (stereo unspecified) | inactive | 
O=C(Nc1ccccc1N1CCOCC1)c1ccccc1NS(=O)(=O)c1ccc(F)c(F)c1 | inactive | 
COc1cccc(N2C(=O)C(CC(=O)Nc3ccc(Cl)cc3)N(Cc3ccc4c(c3)OCO4)C2=O)c1 (stereo unspecified) | inactive | 
Clc1ccc(COn2nnc3ccccc32)c(Cl)c1 | inconclusive: 35.5 µM [activator, single point] | 
COc1cc(C)nc(Oc2ccc(=O)n(C)n2)n1 | inconclusive: 7.94 µM [activator, partial curve, poor fit] | 
O=C(CSc1nnc(-c2ccccc2)n1Cc1ccco1)NCc1ccc2c(c1)OCO2 | inactive | 
CC(=O)Oc1ccc(NC(=O)CSc2ccccc2)cc1 |  | inconclusive: 32% [activator]
C#CCn1c(COc2ccccc2C)nc2ccccc21 | inconclusive: 15.8 µM [activator, single point] | 
Cc1cc(Br)ccc1NC(=O)C(Cc1ccccc1)NS(=O)(=O)c1ccc(Br)s1 (stereo unspecified) | inactive | 
Cc1nn(CCOc2ccccc2)c(=O)n1-c1c(F)cccc1F | active: 12.6 µM | 
Cc1ccc(CN(c2ccc(C(=O)Nc3ccc4c(c3)OCO4)cc2)S(C)(=O)=O)cc1 | inactive | 
CCCC[C@@H]1C[C@H]1C(NC(=O)c1ccccc1)c1ccc(C(F)(F)F)cc1 (stereo partly specified) | inactive | 
CCOc1ccc(OCC(=O)Nc2ccc(OC)cc2)cc1 | inconclusive: 12.6 µM [activator, partial curve] | 
COc1ccc(N(C(=O)c2ccco2)S(=O)(=O)c2cccc([N+](=O)[O-])c2)cc1 | inactive | 
O=C(CSc1cnc2ccccc2n1)c1ccc(F)cc1 | active: 11.2 µM | 
COc1ccc(-c2cc(-c3cccs3)c(C#N)c(SCC(=O)NCc3ccccc3)n2)cc1 | inconclusive: 15.8 µM [activator, partial curve, poor fit] | 
Nc1ccc(Nc2nc(-c3cc4ccccc4oc3=O)cs2)cc1 | inconclusive: 35.5 µM [activator, single point] | 
COc1ccc(COC(=O)c2n[nH]c3ccccc23)cc1F | inconclusive: 25.1 µM [activator, single point] | 
CCOC(=O)c1ccc(NC(=S)NN2CCOCC2)cc1 | inconclusive: 0.0282 µM [activator, full curve, poor fit] | 
